Experimental data from the supplement of paper PMC11417369.
The other results are listed elsewhere or left out.

Tested on: PF3D7_0420300 AP2 domain 1 (GST-tagged)
Assay: gcPBM binding intensity (ln(normalized median fluorescence intensity)); higher = stronger DNA binding
Outline: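 For binding intensity, the highest Masliner-normalised natural-log median intensity across replicate spots of either probe orientation was taken. Protein bound to the array was stained with Alexa488 anti-GST antibody and scanned at 488 nm. The protein, GST-tagged P. falciparum DNA-binding domains from E. coli at about 25 μg on average, had been applied for 1 h to an Agilent 4 × 180k array of primer-extended double-stranded 36-bp intergenic genomic probes and negative controls.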

Sequence	gcPBM binding intensity (ln)
TTTTATAAATTATAATTCTATTATCTGTTCTTTTTA [TGCATGCA_negctrl_site487]	9.25
CATACATACATACATACACACATACAGATATATATA [CACACA_site4890]	9.84
ATCTTAACTCTATGCACACATAAAAGTATATAAATA [CACACA_site2256]	9.32
ATCATGTTATATACATGTACATATATATATATATAA [XGTACX_site609]	9.24
TTTTATTTTTTTAAATGTACACATATTAATGTAAGG [XGTACX_site319]	8.91
ATCATCCAAGATCTTACACACATATTAAATAAATAA [CACACA_site1473]	9.64
CACATATAGTTATATGCACACATCTTACACATCTAT [CACACA_site5937]	9.6
AACACAGATAAATTAACACACACACCCATATATATA [CACACA_site9310]	10.1
TAGCTTATTAATATCATACACACATAGATATATTTA [CACACA_site3105]	9.43
ATGAAATATCGGAACGCACACATAAATATATTTATA [CACACA_site2670]	9.58
CAATTTGGGGTGTACACACACCTTATTTAAATTAAA [CACACA_site6663]	9.29
TTGAACTCTCTTACGCGTACGTGTTATTATGAAAAT [XGTACX_site6265]	9.33
TATATATATATATGTGCATGTAATGATTCAGCATCT [TGCATGCA_site803]	9.43
ATATGTTTTGTTTACGTGCACTGCTTTGTTTATATA [GTGCAC_site9622]	9.92
AGCATATTATCATATTGTACATATTATAATATATAT [XGTACX_site3907]	9.25
ATTTCTCAATCTTAATGTACAAAAAAAAGGAAAAAG [XGTACX_site1210]	9.02
TAAAAATTTTAATAAACACACAATGAGATATTGAAT [CACACA_site5704]	9.36
AGCAAATCAGATAGTAGTACATTTAAATTAGACTTT [XGTACX_site4172]	9.19
TTTTTAATTATCTTTTCCCATGGTTTCTCCGTTTTT [XGTACX_negctrl_site39]	9.45
CAAAATAAAAATAACACACACATTTATATATATACA [CACACA_site1190]	9.98
ATATTCTTTTTATGTGGTACTAATTTTTTTTTTTTA [XGTACX_site3791]	9.59
TAAAACATAAGAGACACACACACATATATATATATA [CACACA_site3643]	9.9

Sequence	gcPBM binding intensity (ln)
TTTTTAAAACATCACTGTACCCGTTATGGTGAACAT [XGTACX_site3483]	9.06
AGTAAAAGAAAGCACACACACATGTATATAGGTATG [CACACA_site7759]	9.99
TTTTTAAATAATTGAAGTACACATTTCTCTAAGTTG [XGTACX_site2846]	8.97
TTTTTTTTTTTGTTTAAACACACGAGCTTTCTTCTT [CACACA_site4085]	9.55
CATGTATTTTATATTACACACTAATATTATAGATAT [CACACA_site6819]	9.33
AAACATATAAACATATGTACATATAAACATATATAC [XGTACX_site5026]	9.42
TTAAAAAAAGAAAAAAAAAAAAAAAAAAAAAAACAT [CACACA_negctrl_site475]	9.55
TATAAAAATATTTCTACACACATTAATATTTATATA [CACACA_site6661]	9.41
TATTATATTCTGCTTACACACATATATATATATATA [CACACA_site3060]	9.72
GTGATAATTGCTTGGTGTACCCACATATATATATAT [XGTACX_site1636]	9.52
GTTCTAAATATTATTGCATGTTGCACGTTTCTCTGT [TGCATGCA_site159]	9.41
AAAAGATATATTATATGTACTAATTATATGATAAAT [XGTACX_site4192]	9.33
AAAGAGAAATTTAAATGTACATTTGTTCTAAGTGTA [XGTACX_site3602]	9.14
AATTATGAAAAATCAAGTACAAACAAAATCATAATT [XGTACX_site5665]	9.49
CATACACCCATACATACACACATACATATATATATA [CACACA_site8591]	9.7
ATATAATGTTTCACATGTACAAACAACACAAAAAAA [XGTACX_site1899]	9.21
TTTTTTTTTTTAAATTGTACTTATTTTATATTATAT [XGTACX_site1077]	9.19
AATGTCATGATACATACACACACATACACATACACA [CACACA_site8665]	9.96
TATTAAATATTGTAATGTACATATATAATATAATAT [XGTACX_site1809]	9.11
ATATCTTATTTTCCTTGTACTTATTTCATAATTACA [XGTACX_site3894]	9.56
CAATAAACCATTTTTTGTACATAAAAATAGGTATTG [XGTACX_site1892]	9.1
AATTTCCCATATTACACACATACTATGATATATAAA [CACACA_site3834]	9.56

Sequence	gcPBM binding intensity (ln)
TAAATATGTATAAATTGTACAAAATATATGAATAGT [XGTACX_site5659]	9.49
AGTATACGCAAACACACACACACAAAAAAAAAAAAA [CACACA_site426]	9.88
TATTATATTTATATTTGTACTTAAAATATTATACAC [XGTACX_site2881]	9.13
AAATAAGAAAATCATAGTACATAGGAATAGAAGAAC [XGTACX_site3135]	9.9
TACGTTCTGATATATACACACCTGGTATTAATTATG [CACACA_site7113]	9.73
AGAAAAATTATATATACACACTTATATTTATATATA [CACACA_site5555]	9.3
TTATCTTAATTGTGATTATAAAGATATTCTTTCTAT [GTGCAC_negctrl_site410]	9
CAACCTCATAATATTTAACACACAAAATTATATGTA [CACACA_site8496]	9.45
CATTTAGAATAAGGCACACATAAAGAACACTTTCCA [CACACA_site130]	9.36
ATACCAAATGAATAATGTACATACGAACATACATAT [XGTACX_site1301]	9.46
GTACATTGTAAGGATGGAAAAGCTAAACATTATAAT [XGTACX_negctrl_site339]	9.39
ATATTTTTAACCAAGGACACAATTCTTGTATTGTTA [CACACA_negctrl_site1326]	9.1
AAAAGATTAAGTAGAATAATGTTCTTTCCCAACATA [GTGCAC_negctrl_site223]	9
TAAGTCGTTATAAGCACACACATAAATAAAAATAAA [CACACA_site1574]	9.54
AAGGGTTATAAAAATTGTACTTTTTTTATTTTTTTT [XGTACX_site1313]	9.31
ATATATTTATATAGGTGTACATATTTTGCTATTCAA [XGTACX_site5199]	9.23
TCAATTTTTTAATGTTGTACTTTGTAAAAAAAAATA [XGTACX_site8481]	8.8
TTGATATGTACAGGCACACATAAATTTCACAAATAT [CACACA_site3999]	9.31
CGTATTATTTTATAAACACACAAGGGGGCATGTATA [CACACA_site6489]	9.79
CTTTAGTTTTTAATGTGTACTGAATTTGAATAGTAG [XGTACX_site7920]	9.12
ATATAATTAAAAACATGTACATATATATATATATAT [XGTACX_site2882]	9.26
CATAAATGTATATAAACATGCAAGGACAGACTTTTA [TGCATGCA_site900]	9.39

Sequence	gcPBM binding intensity (ln)
AAAATTAAATTATAAGCACACACATATATATATATA [CACACA_site9105]	9.44
TACATACAGATATATACACACATATATAATATATAT [CACACA_site4376]	9.71
TACATACCTATATACACATGCATATTTACATATATT [TGCATGCA_site206]	9.67
GTAAAAATACAAAAGGTGCTCAAACAATATAATACA	9.6
AATGGATTGATAAGTGGTACACACATATATATTATA [XGTACX_site6086]	9.58
GAATATTAAACAAACACACACACATATATTTATATA [CACACA_site7563]	10.1
TATATAATATATATGACACACATATTTATATAAATA [CACACA_site4054]	9.28
TATTCTGGTGTAAATGCACACAGAAGAAGAAAAAAA [CACACA_site9225]	9.27
AAGGACACCTTCAAAACACACATACAAATAAATAGA [CACACA_site5771]	9.62
TTCTGTTGGAATATATGTACATAATAAAAAAAAATA [XGTACX_site1741]	8.99
TTTTTTTTTTTTGTAATACACACCACTATATGTTAT [CACACA_site1844]	9.45
AATAAATAAAAAAAAAAAAAAAAAAAAAAAAAAAAA [XGTACX_negctrl_site343]	8.62
TGTAGTCTGGAGAAAAGTACACAGTATCTGGTAACA [XGTACX_site2010]	9.05
TATGGCAAAACATTCACACATATTTATATATGTGTA [CACACA_site5588]	9.2
AGTTTTATAAAAATATGTACTTATATACACATGTAT [XGTACX_site4022]	9.33
TGTGGGAATAACCACACACACACACGCATATAAATA [CACACA_site7634]	10
TTTTCATATGAACAATGTACACATCGTATAATTCTG [XGTACX_site4756]	9.23
TGAACAGACGAGCACACACACACATATATATATATA [CACACA_site1019]	9.87
CTCATAAAAATAACGTTAACATAAATTTATTGTGAT [XGTACX_negctrl_site169]	9.31
AATATAAAACATATCACACATATGTATTTATGTATA [CACACA_site5763]	9.22
TATATGTCAATATCTACACACATATATATAATTATT [CACACA_site3156]	9.5
ATACATATTAAAGGATGTACACTTATATTTTTTAGA [XGTACX_site5406]	9.11
